B1: TPR 5TU (parent)
chain: GGAUCUUCUCGAUCUAACAAAAAAGACAAAUCUGCCACAAAGCUUGAGAGCAUCUUCGGAUGCAGAGGCGGCAGCCUUCGGUGGCGCGAUAGCGCCAACGUUCUCAACUAUGACACGCAAAACGCGUGCUCCGUUGAAUGGAGUUUAUCAUG

Variants at the floor of the assay are shown more often than the library holds them.

This is an account of results in the RNAGym collection of RNA variant scans (doi:10.1073/pnas.2313332121).

This data set covers variants of B1. Briefly: polymerase ribozyme fitness, log enrichment relative to wild type (log ratio); higher = more active; in vitro selection for triplet polymerase activity. A digest of the protocol: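 Each subunit of a heterodimeric triplet polymerase ribozyme was represented by a PCR-built, transcribed mutant library that underwent triplicate single-round in vitro selection with frozen incubation at −7 °C. Extended constructs were recovered by gel excision, streptavidin-bead capture and RT-PCR, and Illumina sequencing of input and output libraries kept genotypes with ≥10 input reads and ≥1 read per output. Fitness is the logarithm of genotype enrichment relative to wild-type enrichment, from inverse-variance-weighted replicate averages, with a logarithm base of 2.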
Regarding C27G G81C U151A, the “polymerase ribozyme fitness (log ratio)” value is not above -4.2. Take C27G A47C U90C: the “polymerase ribozyme fitness (log ratio)” value was not above -4.2. With C27U G83A C125U U130G U135G, the “polymerase ribozyme fitness (log ratio)” value was not above -4.2. With C27U U31G C43U C95U, the “polymerase ribozyme fitness (log ratio)” value is not above -4.2. Consider C27U G92C C116U A119U U135G, for which the “polymerase ribozyme fitness (log ratio)” value was not above -4.2.

As for A28C A30U C35G C87A C105U, the “polymerase ribozyme fitness (log ratio)” value is -3.84. As for C27G G48A U55A G74A C76G U78G G83U C85G C96A, the figure is not above -4.2; as for A28C A39G U55G U90G G94A A97C C114A, not above -4.2; as for C27U U55C A60C G80A C85G, not above -4.2. With C27U A52G A66C C76G G84U C95G G140U, the “polymerase ribozyme fitness (log ratio)” value is not above -4.2. As to C27U C51U A52C U90C C95U C108G C129G U139A U144G, the “polymerase ribozyme fitness (log ratio)” value is not above -4.2.

Take C27G A40U C54U G83U U111C C118A G133A: the “polymerase ribozyme fitness (log ratio)” value was not above -4.2. As for C27U C43U C79G C93A, the “polymerase ribozyme fitness (log ratio)” value is not above -4.2.

For the variant C27G G68U C76G A120C U145C, the “polymerase ribozyme fitness (log ratio)” value is not above -4.2. As to C27U C35A A60C, the “polymerase ribozyme fitness (log ratio)” value is not above -4.2. Consider C27U U33C A73G C85U, for which the “polymerase ribozyme fitness (log ratio)” value was -0.859. Take C27U C32A G46U A47C U53A C87G: the “polymerase ribozyme fitness (log ratio)” value is not above -4.2. Turning to C27G U53A C54A C93G, the “polymerase ribozyme fitness (log ratio)” value is not above -4.2. Take A28C A39C A91U A120U G143C: the “polymerase ribozyme fitness (log ratio)” value was not above -4.2.

On to C27G A137U, for which the “polymerase ribozyme fitness (log ratio)” value was not above -4.2.

As to C27G C32G U45A G65A G92A A106U A122G A137C A138U G152A, the “polymerase ribozyme fitness (log ratio)” value is not above -4.2.

Regarding C27U A49U C129G, the “polymerase ribozyme fitness (log ratio)” value is not above -4.2. C27U G81U C85U: the “polymerase ribozyme fitness (log ratio)” value is -2.15.

Regarding C27G A107C, the “polymerase ribozyme fitness (log ratio)” value is not above -4.2. On to C27G C75G A98G A121U C131U G141C, for which the “polymerase ribozyme fitness (log ratio)” value is not above -4.2.

Consider C27U G58C G83A A91U A107C U127A, for which the “polymerase ribozyme fitness (log ratio)” value is not above -4.2. For C27G C96G A106G C131G, the “polymerase ribozyme fitness (log ratio)” value was not above -4.2. Consider C27U A49C C72U G80U, for which the “polymerase ribozyme fitness (log ratio)” value was not above -4.2. For C27G G48A C99G, the “polymerase ribozyme fitness (log ratio)” value was not above -4.2. As for C27G A39U G88A A119C G128U U130C, the figure is not above -4.2; as for C27G A49C G59C C76G, not above -4.2.

Consider C27U U90G A98G A107C C116A U135C, for which the “polymerase ribozyme fitness (log ratio)” value is not above -4.2. For the variant C27U A52G C105G G141C, the “polymerase ribozyme fitness (log ratio)” value is not above -4.2. In the case of C27G C85G G88A G100C U148G, the “polymerase ribozyme fitness (log ratio)” value is not above -4.2.

A28C A37C G124A A142C: the “polymerase ribozyme fitness (log ratio)” value was not above -4.2. C27G A47C G50C U82G A138U: the “polymerase ribozyme fitness (log ratio)” value is not above -4.2. As for C27U C79A C103A, the figure is not above -4.2.

For C27G A39G G83A G143U, the “polymerase ribozyme fitness (log ratio)” value was not above -4.2. C27G G62C U90A G92U C96U U101C A120C C129G G140C: the “polymerase ribozyme fitness (log ratio)” value is not above -4.2.

As for A28C A30U U102A A138C U146C A150U, the “polymerase ribozyme fitness (log ratio)” value was not above -4.2. As for C27G C79A, the figure is not above -4.2. Consider C27G C79U, for which the “polymerase ribozyme fitness (log ratio)” value was not above -4.2. For C27U A47C C85U A107G C114U A122U G136C, the “polymerase ribozyme fitness (log ratio)” value was not above -4.2. Next, C27U G50A A64G C96A C131U U145G: not above -4.2; C27G A73G C85G: not above -4.2. As for C27G G34U G48U U53C C79G C93G G136U G152U, the figure is not above -4.2; as for C27U C57U G94A C95A G143A, not above -4.2. On to C27G C63U C75U C93G U145A, for which the “polymerase ribozyme fitness (log ratio)” value was not above -4.2. With C27G C85A G92A C96A A106U C123U, the “polymerase ribozyme fitness (log ratio)” value is not above -4.2.

For the variant C27G G62A A64G A73C G88U C99U A107U G124A U130C U148A, the “polymerase ribozyme fitness (log ratio)” value is not above -4.2. For the variant C27G A91C C96U C99U A119C A138C U148G, the “polymerase ribozyme fitness (log ratio)” value was not above -4.2. For the variant C27G U61G U78G G92U, the “polymerase ribozyme fitness (log ratio)” value was not above -4.2. As to C27U A64C C85U U130A A137U U146A, the “polymerase ribozyme fitness (log ratio)” value was not above -4.2. Next, C27U A28U C76U U78G C93G A119G: not above -4.2; A28C A29C G46C C75A G86A G140C: not above -4.2.

With C27U U45A A91U G124U U127A, the “polymerase ribozyme fitness (log ratio)” value is not above -4.2.

Regarding A28C A29U A52G G83U U148G, the “polymerase ribozyme fitness (log ratio)” value was not above -4.2. Next, C27U G65C A66C A73U C93A C108G C129G: -3.81. Turning to C27G G80A G81C, the “polymerase ribozyme fitness (log ratio)” value is -4.11. As to C27G U56G, the “polymerase ribozyme fitness (log ratio)” value is not above -4.2. On to C27U A60G U90G G117A A150G, for which the “polymerase ribozyme fitness (log ratio)” value was not above -4.2. For C27G A52C U53A A64G C69A U78A C79A C87G G94C C95A A142C, the “polymerase ribozyme fitness (log ratio)” value was not above -4.2. On to C27G C76A G81C G86U A91G U101G C108A, for which the “polymerase ribozyme fitness (log ratio)” value is not above -4.2.

As to C27G A91U G94A, the “polymerase ribozyme fitness (log ratio)” value is not above -4.2.

Regarding C27U C35U G46A G80A C85A, the “polymerase ribozyme fitness (log ratio)” value was not above -4.2. With C27U G46C A52C C75G C85A C103U, the “polymerase ribozyme fitness (log ratio)” value is not above -4.2. C27G C54A: the “polymerase ribozyme fitness (log ratio)” value was -3.98. Take C27G G83A: the “polymerase ribozyme fitness (log ratio)” value is -4.12.

For C27G G42A C51A C87G A91G G112A, the “polymerase ribozyme fitness (log ratio)” value was not above -4.2. As to C27U A29U U44A U56A C79A C87G G94A G100C U146G U151G, the “polymerase ribozyme fitness (log ratio)” value was not above -4.2. For the variant C27U G46C G74A C95U, the “polymerase ribozyme fitness (log ratio)” value was not above -4.2.

C27U A30G U56A G94C G126U A137C: the “polymerase ribozyme fitness (log ratio)” value is not above -4.2. For the variant C27G G92C G143C U148G, the “polymerase ribozyme fitness (log ratio)” value is not above -4.2. On to A28C A40U U53A G84U A115U, for which the “polymerase ribozyme fitness (log ratio)” value is not above -4.2. Turning to C27U G68U C79G G141U, the “polymerase ribozyme fitness (log ratio)” value is not above -4.2.

Regarding C27G C57G C118G A142U A147U, the “polymerase ribozyme fitness (log ratio)” value is not above -4.2. For C27U C35A A37C C51U U127A, the “polymerase ribozyme fitness (log ratio)” value was not above -4.2. Regarding C27G A41C A47U C54U G59A U144G, the “polymerase ribozyme fitness (log ratio)” value is not above -4.2. As for C27U A49G G86U A97U C105A, the “polymerase ribozyme fitness (log ratio)” value is not above -4.2.

For the variant C27G C36G C85U, the “polymerase ribozyme fitness (log ratio)” value is not above -4.2. Regarding A28C A40C U77C G141C, the “polymerase ribozyme fitness (log ratio)” value was not above -4.2.

For C27U G59A A66G C96A A97U U102A A110G G143A, the “polymerase ribozyme fitness (log ratio)” value is not above -4.2.

For the variant C27U A39U U53A C93U, the “polymerase ribozyme fitness (log ratio)” value was not above -4.2. As for C27U A40C C43G G71C C85U C114U G152U, the figure is not above -4.2.
